In PubChem BioAssay AID1508623 (National Center for Advancing Translational Sciences (NCATS), 2021):
Hit rate of the full screen: of about 48,000 compounds, about 450 (0.94%) were called active. Another 19% or so got no clear call; they are omitted. Calls come from the whole dose curve; as a rule, active = well fitted inhibition curve with a large enough effect; inconclusive = small, poorly fitted or top-dose-only effect; inactive = no such curve, though single readings can be large or run the other way. This is one part of the list.

Assay: Primary qHTS for Identification of Small Molecule Inhibitors of Huntingtin Promoter Activity; note: nearly all actives have a fitted effect of over 50% in size
Details: HEK293 HTT promoter firefly luciferase reporter (activity 0% = vehicle and -100% = no light), 24 h; series mostly up to 57.5 µM; activity change, negative = inhibition: at the top concentration
Summary of the method: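 HEK293 luciferase promoter-reporter cells (2,500/well) plated 24 h, then compounds added at up to 57.5 uM final for 24 h at 37 °C. Firefly luminescence by Dual-Glo, normalized to vehicle (0%) and zero RLU (-100%).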

Activity change, negative = inhibition, inactive:
Cc1ccc(N2CC(NC(=O)c3cccs3)CC2=O)cc1 (stereo not drawn) -17.6%
O=C(CCCN1C(=O)c2cccnc2Oc2ccc(Cl)cc21)NCc1ccc(F)cc1 -6.48%
CN1CCN(CCNC(=O)c2cnn(-c3ccc(F)cc3)c2C2CCN(C(=O)OC(C)(C)C)CC2)CC1 -3.82%
O=C(Nc1ccccc1)Nc1nnc(SCC(=O)N2CCCCC2)s1 -21.3%
Cc1ccc(N2C(=O)CSC23C(=O)N(CC(=O)NCc2ccccc2)c2ccccc23)cc1 (stereo not drawn) -25.4%
CCOc1ccc(-n2cc(-c3ccccc3)c3c(NC4CCCC4)ncnc32)cc1 -13.5%
O=C(CN1C(=O)C2(SCC(=O)N2c2ccc(F)cc2)c2ccccc21)NC1CCCCC1 (stereo not drawn) -14.4%
Cc1ccc2c(c1)C(=O)OC(C(=O)Nc1ccccc1C(=O)O)C2 (stereo not drawn) 16.6%
Cc1cc2oc(C(=O)N(Cc3ccc(N(C)C)cc3)Cc3ccco3)c(C)c2cc1Cl -20.2%
Cc1ccccc1Nc1nc(N)c(C(=O)c2ccccc2Cl)s1 -27.8%
Oc1cc2c(cc1O)C1c3ccc(O)c(O)c3OCC1(O)C2 (stereo not drawn) -5.99%
CCOc1ccc(NC(=O)c2cnc3sc(N4CCOCC4)nn3c2=O)cc1 0.849%
COc1cccc(N2CC(NC(=O)COc3ccccc3F)CC2=O)c1 (stereo not drawn) -21.3%
Cc1ccc(C)c(NC(=O)CSc2ccc3nc(-c4ccccc4)cn3n2)c1 8.08%
O=C(Nc1cccc(C(=O)OCc2cc(=O)n3nc(C4CC4)sc3n2)c1)c1cccc(Cl)c1 -13.1%
COc1ccc(Nc2oc(/C=C/c3ccccc3OC)nc2C#N)cc1 27.6%
COc1cc(C(=O)NCCc2sc(-c3cccc(F)c3)nc2C)cc(OC)c1OC -18.3%
O=C(Nc1ccccc1Br)c1cc(CN2CCCC2)on1 31.4%
COc1cc2c(cc1NC(=O)c1ccccc1C)n(C)c(=O)n2C 9.75%
CCc1ccc(CNC(=O)c2ccc(-c3nc(CSc4ccc(C)cc4)c(C)o3)cc2)cc1 -14.5%
O=C(CSc1oc(-c2ccc(F)cc2)nc1S(=O)(=O)c1ccccc1)NC1CCCCC1 -16.1%
CCSc1nnc(NC(=O)c2cc(=O)c3cc(C)ccc3o2)s1 3.68%
COc1cccc(CNC(=O)CCn2cnc3ccccc3c2=O)c1 -9.53%
CC(CCc1ccccc1)NC(=O)Cn1ncc2c3ccccc3n(Cc3ccccc3)c2c1=O (stereo not drawn) 3.44%
O=C(CCN1C(=O)c2ccccc2Sc2ncccc21)Nc1ccc(F)cc1 -5.73%
CCOC(=O)c1ccc(NC(=O)c2oc3c(c2C)-c2nn(Cc4ccccc4Cl)cc2CC3)cc1 -15.7%
CCOC(=O)c1cccc(NC(=O)CCS(=O)(=O)c2ccc3c(c2)CC(=O)N3C)c1 -7.55%
Cc1ccc(/C=C(\C#N)c2nc(-c3ccc(-c4ccccc4)cc3)cs2)cc1 12%
